Assay results from a compilation of properties of binary mixtures (doi:10.1007/s10765-022-03014-z).
The densities may have been worked out from excess volumes.

Test: xn = mol fraction of the nth substance listed
Settings: 101 kPa

CO + CCCC[n+]1ccn(C)c1.O=S(=O)([O-])C(F)(F)F
x1 = 1
Settings	mass density [kg/m3]
278.15 K	805.5
283.15 K	800.9
293.15 K	791.6
298.15 K	786.9
303.15 K	782.1
333.15 K	752.8

CCCC[n+]1ccn(C)c1.O=S(=O)([O-])C(F)(F)F + CO
Settings	mass density [kg/m3]
278.15 K, x1 = 0.0034	816
278.15 K, x1 = 0.0127	842.3
278.15 K, x2 = 0.0851	1306
278.15 K, x2 = 0.1553	1298.5
278.15 K, x2 = 0.3213	1276.1
278.15 K, x2 = 0.519	1235.1
278.15 K, x2 = 0.6999	1169.3
278.15 K, x2 = 0.8218	1090.1
278.15 K, x2 = 0.8447	1069.3
278.15 K, x2 = 0.9334	956
278.15 K, x2 = 0.9729	878.1
283.15 K, x1 = 0.0034	811.4
283.15 K, x1 = 0.0069	821.7
283.15 K, x1 = 0.0127	837.7
283.15 K, x2 = 0	1309.8
283.15 K, x2 = 0.1553	1294.4
283.15 K, x2 = 0.3213	1271.9
283.15 K, x2 = 0.519	1230.9
283.15 K, x2 = 0.6999	1164.9
283.15 K, x2 = 0.8218	1085.6
283.15 K, x2 = 0.8447	1064.7
283.15 K, x2 = 0.8739	1034
283.15 K, x2 = 0.9334	951.5
283.15 K, x2 = 0.9729	873.6
293.15 K, x1 = 0.0034	802.1
293.15 K, x1 = 0.0069	812.4
293.15 K, x1 = 0.0127	828.4
293.15 K, x2 = 0.0851	1293.8
293.15 K, x2 = 0.1553	1286.3
293.15 K, x2 = 0.3213	1263.7
293.15 K, x2 = 0.519	1222.4
293.15 K, x2 = 0.6999	1156.2
293.15 K, x2 = 0.8218	1076.6
293.15 K, x2 = 0.8739	1025
293.15 K, x2 = 0.9334	942.4
298.15 K, x1 = 0.0034	797.4
298.15 K, x1 = 0.0127	823.8
298.15 K, x2 = 0	1297.7
298.15 K, x2 = 0.0851	1289.8
298.15 K, x2 = 0.1553	1282.2
298.15 K, x2 = 0.3213	1259.6
298.15 K, x2 = 0.519	1218.3
298.15 K, x2 = 0.6999	1151.9
298.15 K, x2 = 0.8218	1072.2
298.15 K, x2 = 0.8447	1051.3
298.15 K, x2 = 0.8739	1020.5
298.15 K, x2 = 0.9334	937.8
303.15 K, x1 = 0.0127	819.1
303.15 K, x2 = 0	1293.7
303.15 K, x2 = 0.1553	1278.2
303.15 K, x2 = 0.3213	1255.5
303.15 K, x2 = 0.519	1214.1
303.15 K, x2 = 0.6999	1147.7
303.15 K, x2 = 0.8218	1067.8
303.15 K, x2 = 0.8447	1046.8
303.15 K, x2 = 0.8739	1016.1
303.15 K, x2 = 0.9334	933.3
303.15 K, x2 = 0.9729	855.1
313.15 K, x1 = 0.0034	783.2
313.15 K, x1 = 0.0069	793.5
313.15 K, x1 = 0.0127	809.6
313.15 K, x2 = 0.0851	1277.8
313.15 K, x2 = 0.1553	1270.2
313.15 K, x2 = 0.519	1205.8
313.15 K, x2 = 0.6999	1139.1
313.15 K, x2 = 0.8218	1059
313.15 K, x2 = 0.8447	1038
313.15 K, x2 = 0.8739	1007.1
313.15 K, x2 = 0.9334	924
313.15 K, x2 = 0.9729	845.6
333.15 K, x1 = 0.0034	763.6
333.15 K, x2 = 0.0851	1262
333.15 K, x2 = 0.1553	1254.3
333.15 K, x2 = 0.3213	1231.3
333.15 K, x2 = 0.6999	1121.9
333.15 K, x2 = 0.8447	1019.7
333.15 K, x2 = 0.8739	988.8
333.15 K, x2 = 0.9729	826.2
353.15 K, x2 = 0	1254.6
353.15 K, x2 = 0.0851	1246.4
353.15 K, x2 = 0.1553	1238.7
353.15 K, x2 = 0.3213	1215.4
353.15 K, x2 = 0.519	1172.8
353.15 K, x2 = 0.6999	1104.8
373.15 K, x2 = 0	1239.4
373.15 K, x2 = 0.1553	1223.3
373.15 K, x2 = 0.3213	1199.8
393.15 K, x2 = 0	1224.4
393.15 K, x2 = 0.0851	1216
393.15 K, x2 = 0.1553	1208
393.15 K, x2 = 0.3213	1184.1
413.15 K, x2 = 0	1209.6
413.15 K, x2 = 0.0851	1201
413.15 K, x2 = 0.1553	1192.9
